# Laboratory results from PubChem BioAssay AID504333 (National Center for Advancing Translational Sciences (NCATS), 2011).
# Screen size: about 360,000 compounds; about 16,000 (4.4%) were called active. The shares of active, inactive and inconclusive entries below differ from those in the screen. Calls follow the shape of the dose curve; as a rule, active = well fitted inhibition curve with a large enough effect; inconclusive = small, poorly fitted or top-dose-only effect; inactive = no such curve, though single readings can be large or run the other way. Potencies beside an inconclusive call are fits to weak or partial responses and may not hold up.
# Target: Bromodomain adjacent to zinc finger domain protein 2B (Homo sapiens) (UniProt Q9UIF8)
# Chain of UniProt Q9UIF8 (Q9UIF8 whole entry, looked up, the tested form may be a part): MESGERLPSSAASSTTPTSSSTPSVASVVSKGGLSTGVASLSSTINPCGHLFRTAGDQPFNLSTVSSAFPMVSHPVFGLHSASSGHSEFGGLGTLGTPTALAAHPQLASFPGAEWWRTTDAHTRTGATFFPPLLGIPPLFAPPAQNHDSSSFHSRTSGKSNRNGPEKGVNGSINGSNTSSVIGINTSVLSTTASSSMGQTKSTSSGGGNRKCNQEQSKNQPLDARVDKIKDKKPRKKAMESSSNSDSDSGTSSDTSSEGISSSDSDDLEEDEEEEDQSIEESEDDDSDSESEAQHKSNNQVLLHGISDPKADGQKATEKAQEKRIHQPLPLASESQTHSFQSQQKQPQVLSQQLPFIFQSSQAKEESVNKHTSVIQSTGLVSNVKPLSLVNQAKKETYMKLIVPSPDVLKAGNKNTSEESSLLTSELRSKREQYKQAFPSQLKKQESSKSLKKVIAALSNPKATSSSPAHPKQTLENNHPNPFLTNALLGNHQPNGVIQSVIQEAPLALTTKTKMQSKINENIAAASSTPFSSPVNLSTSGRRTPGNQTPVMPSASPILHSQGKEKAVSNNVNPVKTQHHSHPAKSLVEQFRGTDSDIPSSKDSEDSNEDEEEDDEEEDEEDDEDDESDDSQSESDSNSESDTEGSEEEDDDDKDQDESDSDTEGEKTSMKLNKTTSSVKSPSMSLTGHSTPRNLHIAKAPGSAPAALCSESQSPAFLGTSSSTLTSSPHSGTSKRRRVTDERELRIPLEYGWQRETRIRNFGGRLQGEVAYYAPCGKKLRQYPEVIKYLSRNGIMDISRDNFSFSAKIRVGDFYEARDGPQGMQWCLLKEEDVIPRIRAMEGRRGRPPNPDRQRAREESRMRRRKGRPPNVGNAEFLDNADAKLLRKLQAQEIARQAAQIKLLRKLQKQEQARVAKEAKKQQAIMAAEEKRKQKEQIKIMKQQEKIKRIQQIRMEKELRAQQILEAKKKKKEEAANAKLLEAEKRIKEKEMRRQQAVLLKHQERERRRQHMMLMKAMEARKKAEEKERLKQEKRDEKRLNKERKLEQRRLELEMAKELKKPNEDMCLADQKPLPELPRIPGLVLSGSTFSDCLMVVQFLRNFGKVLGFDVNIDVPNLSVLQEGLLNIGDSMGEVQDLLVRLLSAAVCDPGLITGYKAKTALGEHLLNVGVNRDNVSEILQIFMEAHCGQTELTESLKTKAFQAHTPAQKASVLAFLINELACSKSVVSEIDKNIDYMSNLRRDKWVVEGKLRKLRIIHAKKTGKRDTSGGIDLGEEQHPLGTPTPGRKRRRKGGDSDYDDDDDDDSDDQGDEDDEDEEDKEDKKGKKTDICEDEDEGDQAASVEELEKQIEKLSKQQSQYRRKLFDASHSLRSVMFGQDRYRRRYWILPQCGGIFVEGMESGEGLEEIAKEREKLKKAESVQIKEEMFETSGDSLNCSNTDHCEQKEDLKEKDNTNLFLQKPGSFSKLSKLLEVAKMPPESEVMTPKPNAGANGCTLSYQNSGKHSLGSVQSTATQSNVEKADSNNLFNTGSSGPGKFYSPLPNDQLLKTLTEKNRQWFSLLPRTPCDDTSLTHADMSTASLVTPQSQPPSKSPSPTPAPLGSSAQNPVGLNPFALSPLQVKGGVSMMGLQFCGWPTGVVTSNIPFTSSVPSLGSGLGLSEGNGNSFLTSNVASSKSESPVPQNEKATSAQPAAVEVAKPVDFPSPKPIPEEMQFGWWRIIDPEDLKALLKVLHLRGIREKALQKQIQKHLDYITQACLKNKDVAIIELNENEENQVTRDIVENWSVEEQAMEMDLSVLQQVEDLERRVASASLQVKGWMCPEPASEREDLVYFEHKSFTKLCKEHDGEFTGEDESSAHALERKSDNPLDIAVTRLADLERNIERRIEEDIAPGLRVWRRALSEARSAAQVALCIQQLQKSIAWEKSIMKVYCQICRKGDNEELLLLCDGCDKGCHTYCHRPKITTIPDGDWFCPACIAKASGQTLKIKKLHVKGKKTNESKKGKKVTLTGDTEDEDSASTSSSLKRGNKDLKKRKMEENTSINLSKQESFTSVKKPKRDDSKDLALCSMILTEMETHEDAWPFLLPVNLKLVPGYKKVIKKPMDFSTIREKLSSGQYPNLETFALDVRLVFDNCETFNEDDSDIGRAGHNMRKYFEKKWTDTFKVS
# Assay: qHTS Assay for Inhibitors of BAZ2B; also: nearly all actives have a fitted effect of over 60% in size
# Details: AlphaScreen BAZ2B-H3K14Ac peptide displacement; activity change, negative = inhibition: at 114 µM (top of the series)
# In short: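 AlphaScreen displacement: compounds (up to 110uM) incubated 30 min at room temperature with a preformed 50 nM BAZ2B/50 nM biotinylated H3K14Ac peptide complex in PBS pH 7.4 with Tween-20. Donor and acceptor beads at 10 ug/mL final added, 20 min light-protected before reading.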
# % is scaled to controls: 0 for no effect and ±100 for the full control effect; potency is read from the fitted curve at half-maximal effect; tags tell the direction and shape of the fitted curve.
SMILES,"activity change, negative = inhibition",Potency
CC(=O)c1ccc(N2CCN(C(=O)c3ccc(C(=O)c4ccccc4)cc3)CC2)cc1,inactive: 0.849%,
Cc1cccc(OCC(O)CN2CCN(c3ccccn3)CC2)c1C (configuration not stated),inactive: -20.8% [at 57.1 µM],
CC1=C(C(=O)OCc2ccccc2)C(/C=C/c2ccccc2)NC(=S)N1 (configuration not stated),,"inconclusive: 79.4 µM [inhibitor, single point]"
O=c1c2cc(NC(=S)N3CCC(N4CCCCC4)CC3)ccc2nc2n1CCCCC2,inactive: 3.81%,
Cc1ccc2onc(CC(=O)N3CCN(c4cccc(C)c4C)CC3)c2c1,inactive: -2.4%,
NC(=O)c1sc(=S)n(-c2ccc(Br)cc2)c1N,,"inconclusive: 35.5 µM [inhibitor, partial curve]"
c1ccc(-c2ccc(-c3nccc4ccccc34)[nH]2)cc1,,"inconclusive: 79.4 µM [inhibitor, single point]"
COc1ccccc1N1CCN(C(=O)c2cc3ccccc3[nH]2)CC1,,"inconclusive: 44.7 µM [inhibitor, partial curve]"
Cc1cc(C(=O)O)c(CSCc2cc(C(=O)O)oc2C)o1,,"inconclusive: 89.1 µM [inhibitor, single point]"
Cc1cccc(CN2CCN(C(=O)c3cccc4ccccc34)CC2)c1,,active: 56.2 µM
COC(=O)CSc1nc(N)c2c3c(sc2n1)C(c1ccccc1)SC(c1ccccc1)C3 (configuration not stated),inactive: 6.7%,
Cc1ccc2cccc(OCC(=O)N3CC(C)CC(C)C3)c2n1 (configuration not stated),inactive: -19.8%,
O=C(CN1C(=O)S/C(=C\c2ccccc2)C1=O)NNC(=O)c1ccccc1O,,"inconclusive: 100 µM [inhibitor, single point]"
CNC(=O)c1ccc(NC(=O)COc2ccc(-c3nn(C)c(=O)c4ccccc34)cc2)cc1,inactive: 0.804%,
C[C@H](NC(=O)OCc1ccccc1)C(=O)NNC(=O)[C@H](C)NC(=O)OCc1ccccc1,inactive: 9.3%,
CN1CCc2c(sc3c2C(=O)NC(c2ccc(OC(=O)c4ccc(Cl)cc4)cc2)N3)C1 (configuration not stated),,"inconclusive: 22.4 µM [inhibitor, full curve]"
O=C(O)Cn1nnnc1-c1ccc(F)cc1,inactive: 6.25%,
Cc1ccc(Cn2c(C)c(CNCc3ccc(OC(C)C)cc3)c(C(=O)O)c2C)cc1,,"inconclusive: 44.7 µM [inhibitor, partial curve]"
COc1ccc(CC(=O)NCCc2sc(-c3cccc(F)c3)nc2C)cc1,inactive: 3.9%,
COCCNc1nc(-c2cc(C)c(C)cc2C)cs1,,"inconclusive: 56.2 µM [inhibitor, partial curve]"
CCOc1cc(/C=C2/C(=O)N(c3ccccc3)N=C2C)ccc1OC(=O)c1ccco1,,active: 44.7 µM
CCc1ccccc1Nc1nn2c(=O)c3ccc(C(=O)NCc4ccccc4Cl)cc3nc2s1,,"inconclusive: 89.1 µM [inhibitor, single point]"
CCOC(=O)N1CCC2(CC1)C(C#N)=C(N)Oc1n[nH]c(CSc3ccc(C)cc3)c12,,"inconclusive: 50.1 µM [inhibitor, partial curve]"
O=C(Nc1nc2ccccc2s1)C1CCN(S(=O)(=O)c2cc([N+](=O)[O-])ccc2Cl)CC1,,active: 28.2 µM

SMILES,"activity change, negative = inhibition",Potency
Clc1ccc(OCCCNCc2ccccc2)c(Br)c1,,"inconclusive: 89.1 µM [inhibitor, single point]"
Cc1ccccc1N=CC=C1OC(C)(C)C(C)(C)O1,inactive: 0.636%,
Cc1ccc(OCC(=O)Nc2ccc3nc(SCC(=O)N(C)c4ccccc4)sc3c2)cc1,inactive: -19.6%,
CCCc1nnc(NC(=O)C(=O)NCCN(C)C)s1,,"inconclusive: 79.4 µM [inhibitor, single point]"
COc1ccc(/C=N/NC(=O)CN(C)C(=O)OCc2ccccc2)cc1OC,inactive: 1.97%,
N#CC(/C(=N/S(=O)(=O)c1cccs1)c1ccccc1)c1nc2ccccc2[nH]1 (configuration not stated),inactive: -3.15%,
FC(F)(F)c1nc2ccccc2nc1N/N=C/c1c(Cl)cccc1Cl,,"inconclusive: 8.91 µM [inhibitor, full curve, poor fit]"
CSc1ccc(/C=N/N2CCN(Cc3ccccc3)CC2)cc1,,active: 12.6 µM
COc1cc(/C=C/c2ccc3c([N+](=O)[O-])cccc3n2)ccc1OCC(=O)O,,"inconclusive: 89.1 µM [inhibitor, single point]"
C(=N\Nc1nc(N2CCOCC2)nc(N2CCOCC2)n1)/c1ccco1,,"inconclusive: 89.1 µM [inhibitor, single point]"
O=C(/C=C/c1ccccc1)Nc1cc(NC(=O)/C=C/c2ccccc2)cc(C(=O)O)c1,,"inconclusive: 89.1 µM [inhibitor, single point]"
O=C(NC1CCCCC1)C12CC3CC(C1)CC(n1cncn1)(C3)C2,inactive: 6.6%,
Cc1nn(Cc2c(Cl)cccc2Cl)c(Cl)c1/C=N/NC(=O)c1cccnc1,,"inconclusive: 89.1 µM [inhibitor, single point]"
COc1ccc(-c2nc(NC3=NCCCCC3)sc2C)cc1,,"inconclusive: 50.1 µM [inhibitor, partial curve]"
CC(Sc1ncnc2ccccc12)C(=O)Nc1ccc2c(c1)OCO2 (configuration not stated),,"inconclusive: 89.1 µM [inhibitor, single point]"
CCOc1ccc(-c2nc(CSCC(=O)NCC3CCCO3)c(C)o2)cc1 (configuration not stated),inactive: -25.3%,
COc1ccc(OC)c(CN2CCN(C(=O)c3ccc(NS(=O)(=O)c4cccc([N+](=O)[O-])c4)cc3)CC2)c1,,"inconclusive: 89.1 µM [inhibitor, single point]"
C/C(=N/NC(=O)C(=O)N/N=C(/C)c1ccccc1)c1ccccc1,inactive: -6.22%,
Cc1ccc2cc3c(N)nn(C(=O)c4cccc(F)c4)c3nc2c1,inactive: -8.33%,
Cc1ccc(-c2csc(N(CCO)CCCn3c(C(F)(F)F)nc4cc(C(F)(F)F)ccc43)n2)cc1,,"inconclusive: 79.4 µM [inhibitor, single point]"
O=C(CN1CCN(c2nc(-c3ccc(F)cc3)cs2)CC1)Nc1ccc2c(c1)OCO2,,"inconclusive: 31.6 µM [inhibitor, full curve]"
CC(C(=O)Nc1ncccn1)(c1ccccc1)c1ccccc1,,"inconclusive: 79.4 µM [inhibitor, single point]"
CCn1nnc2cc(C(=O)NCC(c3ccccc3OC)N(C)C)ccc21 (configuration not stated),inactive: -14.5%,
